# From publication PMC4336329 (PLoS ONE, 2015)
# In all, about 310,000 compounds went through this assay and about 14,000 (4.5%) showed an effect of 50% or more. Effects have a minus sign here. The list shows a part of the results.
# Molecular target: human ether-à-go-go-related gene (hERG) potassium channel (human, UniProt Q12809)
# Test: primary screen, population patch clamp on CHO cells stably expressing hERG
# 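Further: peak tail current of the secondary pulse compared with the same well before compound.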
# Chain of human ether-à-go-go-related gene (hERG) potassium channel (Q12809 whole entry, looked up): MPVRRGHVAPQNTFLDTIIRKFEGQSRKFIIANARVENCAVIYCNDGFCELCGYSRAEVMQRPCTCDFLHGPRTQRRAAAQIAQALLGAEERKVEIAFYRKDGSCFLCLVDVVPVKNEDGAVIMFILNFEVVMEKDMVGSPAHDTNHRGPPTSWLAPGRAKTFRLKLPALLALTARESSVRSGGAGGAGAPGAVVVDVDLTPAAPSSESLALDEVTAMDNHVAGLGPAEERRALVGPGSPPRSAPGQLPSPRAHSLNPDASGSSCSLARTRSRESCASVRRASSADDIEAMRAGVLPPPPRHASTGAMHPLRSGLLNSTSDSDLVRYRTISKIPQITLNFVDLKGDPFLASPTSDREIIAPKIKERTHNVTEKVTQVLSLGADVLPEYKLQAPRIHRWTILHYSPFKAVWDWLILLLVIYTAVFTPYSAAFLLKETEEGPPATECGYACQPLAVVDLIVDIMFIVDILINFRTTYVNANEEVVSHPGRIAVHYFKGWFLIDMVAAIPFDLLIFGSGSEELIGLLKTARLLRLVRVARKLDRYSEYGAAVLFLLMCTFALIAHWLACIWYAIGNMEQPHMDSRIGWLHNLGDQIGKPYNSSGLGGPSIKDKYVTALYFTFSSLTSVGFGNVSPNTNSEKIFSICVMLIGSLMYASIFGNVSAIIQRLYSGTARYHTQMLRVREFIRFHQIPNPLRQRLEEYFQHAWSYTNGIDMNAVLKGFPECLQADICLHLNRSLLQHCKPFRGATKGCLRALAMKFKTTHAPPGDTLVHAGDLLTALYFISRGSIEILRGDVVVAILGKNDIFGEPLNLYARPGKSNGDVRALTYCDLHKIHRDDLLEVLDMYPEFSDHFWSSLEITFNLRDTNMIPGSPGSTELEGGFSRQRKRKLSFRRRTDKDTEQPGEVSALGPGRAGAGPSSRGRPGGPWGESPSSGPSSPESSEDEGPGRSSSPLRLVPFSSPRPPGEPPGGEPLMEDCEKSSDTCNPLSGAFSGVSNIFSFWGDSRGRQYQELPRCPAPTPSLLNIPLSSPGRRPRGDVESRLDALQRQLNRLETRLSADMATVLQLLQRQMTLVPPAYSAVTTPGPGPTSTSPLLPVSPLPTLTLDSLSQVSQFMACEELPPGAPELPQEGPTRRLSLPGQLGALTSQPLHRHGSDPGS
row,Structure (SMILES),"hERG current change (%, negative = inhibition) at 10uM [%]"
1,Cc1noc(/C=C/N(C)C)c1S(=O)(=O)NC1CCCCC1,7.75
2,CC(C)(C)OC(=O)N1CCC[C@H]1c1nnc(SCc2c(Cl)cccc2Cl)o1,-57.5
3,COC(=O)c1ccccc1NC(=O)c1sc(=S)n(C)c1N,9.99
4,CCOc1ccccc1C(=O)NCC(=O)NCCCc1ccccc1,-11.7
5,CCOC(=O)c1ccc(NC(=O)c2cccc(C)c2[N+](=O)[O-])cc1,4.73
6,Cc1ccc(N=Nc2c(O)ccc3n[nH]nc23)cc1,7.51
7,Cc1c(C(=O)Nc2cccc(N(C)S(C)(=O)=O)c2)cccc1[N+](=O)[O-],3.7
8,Cc1ccc(C(=O)CSc2nnnn2-c2ccccc2)o1,-2.08
9,COCc1cc(=O)[nH]c(/N=C(\N)Nc2ccccc2C)n1,-9.8
10,Cc1[nH]c2c(C)cccc2c(=O)c1Br,2.14
11,Cc1c(C(=O)N2CCCC2)c(S(=O)(=O)Nc2ccccc2Cl)c(C)n1C,5.75
12,CN1C(=O)C(C(=O)NC(C)(C)C)C2c3ccccc3OC13CCCCC23 (centres unmarked),-8.31
13,O=C(NN1CC(=O)N(c2cc(Cl)cc(Cl)c2)CC1=O)c1cccs1,3.07
14,CCn1c(SCC(=O)NCc2ccco2)nnc1C(C)C,0.334
15,O=C(OC1CCOC1=O)c1cc(Cl)ccc1[N+](=O)[O-] (centres unmarked),1.35
16,Cc1cc(Cl)ccc1NC(=S)NC(C)(C)C,22.7
17,NC(=O)CC(NC(=O)Cc1ccc(Br)cc1)c1ccc(NCCc2cccc(F)c2)c([N+](=O)[O-])c1 (centres unmarked),4.53
18,Nc1nc(CN2CCN(c3ccccc3)CC2)nc(N2CCCc3ccccc32)n1,-39.6
19,C=CCN(Cc1cc(OC)ccc1OC)C(=O)c1cc2ccc(OC)cc2[nH]1,4.2
20,O=C(Nc1ccc2oc(=O)ccc2c1)c1ccc(-c2cccc([N+](=O)[O-])c2)o1,-8.21
21,CNc1ccccc1C(C)(C)c1cc(-c2ccc(F)cc2)no1,14.8
22,CCc1noc(C)c1C(=O)N(CC)CC(=O)Nc1ccccc1C(F)(F)F,4.76

row,Structure (SMILES),"hERG current change (%, negative = inhibition) at 10uM [%]"
1,Nc1c(C(=O)c2ccc(Br)cc2)oc2ccccc12,18.4
2,O=C(O)c1ccc(NC(CSCc2ccc(F)cc2)C(=O)O)c([N+](=O)[O-])c1 (centres unmarked),2.41
3,O=C(CN1CCN(Cc2ccccc2Cl)C1=O)N1CCCCCC1,2.36
4,Cc1cccc(NC(=O)/C=C/c2ccc3c(c2)OCO3)n1,19.1
5,O=C(CSc1n[nH]c(-c2ccccc2)n1)NCc1cccc(C(=O)O)c1,21.4
6,CCCC(=O)N1CCN(c2ccc(NC(=O)C(C)(C)C)cc2)CC1,7.44
7,COc1ccc(CCNC(=O)CSc2nnc3ccccn23)cc1,20.8
8,CCOC(=O)N1CCN(C(=O)c2cnn3c(C(F)F)cc(-c4ccc(C)cc4)nc23)CC1,-0.653
9,NCCCCCc1cn([C@@H](CCC(=O)O)C(=O)NCCCCCCCCCCC(=O)N2CCNCC2)nn1,15.6
10,O=c1c2c3c(sc2nc2n1CCC2)CCCC3,10.4
11,CCOC(=O)c1c(N2C(=O)CC(Sc3ccccc3C(=O)O)C2=O)sc(C)c1C (centres unmarked),7.33
12,Cc1ccc(-c2cn3cccnc3n2)cc1,-5.77
13,CN(CC(=O)Nc1ccccc1Sc1ccccc1)Cc1nc2ccccc2c(=O)[nH]1,-37.1
14,NS(=O)(=O)c1cnccc1Nc1cccc(Br)c1,-1.65
15,O=c1cc(N2CCOCC2)cnn1-c1ccccc1,3.68
16,O=C(CSc1cn(CCNC(=O)c2cccs2)c2ccccc12)NCc1ccccc1,-12.5
17,COc1cccc2cc(C(=O)N3CCC(C)CC3)c(=O)oc12,0.289
18,CC1CCc2c(sc(/N=C/c3ccco3)c2C(N)=O)C1 (centres unmarked),2.27
19,CC1(C(=O)OCC(=O)Nc2nnc(-c3ccccc3)o2)CC1(Cl)Cl (centres unmarked),-7.05
20,O=C(CN(Cc1ccc(F)cc1)C(=O)c1csnn1)NCc1ccccc1,-31.6
21,COc1cc(SC)ccc1C(=O)NCCc1ccccc1,-29.9
22,COC(=O)c1cnn(-c2nc(OC)cc(OC)n2)c1C,2.37
